# Experimental data reported in patent publication US20100260668A1 (published 2010).
# B1: DVD044 (bispecific antibody, human IgG1, kappa)
# heavy: EVQLVESGGGLVQPGGSLRLSCAASGFTFTDNWISWVRQAPGKGLEWVGYISPNSGFTYYADSVKGRFTISADTSKNTAYLQMNSLRAEDTAVYYCARDNFGGYFDYWGQGTLVTVSSASTKGPEVQLVESGGGLVQPGGSLRLSCAASGYTFTNYGMNWVRQAPGKGLEWVGWINTYTGEPTYAADFKRRFTFSLDTSKSTAYLQMNSLRAEDTAVYYCAKYPHYYGSSHWYFDVWGQGTLVTVSS[omitted - human IgG1 constant region]
# light: DIQMTQSPSSLSASVGDRVTITCRASQDVSTAVAWYQQKPGKAPKLLIYSASFLYSGVPSRFSGSGSGTDFTLTISSLQPEDFATTYYCQQSYTGTVTFGQGTKVEIKRTVAAPDIQMTQSPSSLSASVGDRVTITCSASQDISNYLNWYQQKPGKAPKVLIYFTSSLHSGVPSRFSGSGSGTDFTLTISSLQPEDFATYYCQQYSTVPWTFGQGTKVEIKRTVAAPSVFIFPPSDEQLKSGTASVVCLLNNFYPREAKVQWKVDNALQSGNSQESVTEQDSKDSTYSLSSTLTLSKADYEKHKVYACEVTHQGLSSPVTKSFNRGEC
# notes: DVD-Ig; N-term; VD DLL4 (AB015), C-term; VD VEGF (AB014); HC linker short, LC linker short; also called DVD-Ig DVD044; DVD044H
# B2: DVD469 (bispecific antibody, human IgG1, kappa)
# heavy: EVQLVESGGGLVQPGGSLRLSCAASGFTFTDNWISWVRQAPGKGLEWVGYISPNSGFTYYADSVKGRFTISADTSKNTAYLQMNSLRAEDTAVYYCARDNFGGYFDYWGQGTLVTVSSASTKGPSVFPLAPEVQLVESGGGLVQPGGSLRLSCAASGYTFTNYGMNWVRQAPGKGLEWVGWINTYTGEPTYAADFKRRFTFSLDTSKSTAYLQMNSLRAEDTAVYYCAKYPHYYGSSHWYFDVWGQGTLVTVSS[omitted - human IgG1 constant region]
# light: DIQMTQSPSSLSASVGDRVTITCRASQDVSTAVAWYQQKPGKAPKLLIYSASFLYSGVPSRFSGSGSGTDFTLTISSLQPEDFATTYYCQQSYTGTVTFGQGTKVEIKRTVAAPSVFIFPPDIQMTQSPSSLSASVGDRVTITCSASQDISNYLNWYQQKPGKAPKVLIYFTSSLHSGVPSRFSGSGSGTDFTLTISSLQPEDFATYYCQQYSTVPWTFGQGTKVEIKRTVAAPSVFIFPPSDEQLKSGTASVVCLLNNFYPREAKVQWKVDNALQSGNSQESVTEQDSKDSTYSLSSTLTLSKADYEKHKVYACEVTHQGLSSPVTKSFNRGEC
# notes: DVD-Ig; N-term; VD DLL4 (AB015), C-term; VD VEGF (AB014); HC linker long, LC linker long; also called DVD-Ig DVD469; DVD469H
# B3: DVD475 (bispecific antibody, human IgG1, kappa)
# heavy: EVQLVESGGGLVQPGGSLRLSCAASGFTFTDNWISWVRQAPGKGLEWVGYISPNSGFTYYADSVKGRFTISADTSKNTAYLQMNSLRAEDTAVYYCARDNFGGYFDYWGQGTLVTVSSASTKGPSVFPLAPEVQLVESGGGLVQPGGSLRLSCAASGYTFTNYGMNWVRQAPGKGLEWVGWINTYTGEPTYAADFKRRFTFSLDTSKSTAYLQMNSLRAEDTAVYYCAKYPHYYGSSHWYFDVWGQGTLVTVSS[omitted - human IgG1 constant region]
# light: DIQMTQSPSSLSASVGDRVTITCRASQDVSTAVAWYQQKPGKAPKLLIYSASFLYSGVPSRFSGSGSGTDFTLTISSLQPEDFATTYYCQQSYTGTVTFGQGTKVEIKRTVAAPDIQMTQSPSSLSASVGDRVTITCSASQDISNYLNWYQQKPGKAPKVLIYFTSSLHSGVPSRFSGSGSGTDFTLTISSLQPEDFATYYCQQYSTVPWTFGQGTKVEIKRTVAAPSVFIFPPSDEQLKSGTASVVCLLNNFYPREAKVQWKVDNALQSGNSQESVTEQDSKDSTYSLSSTLTLSKADYEKHKVYACEVTHQGLSSPVTKSFNRGEC
# notes: DVD-Ig; N-term; VD DLL4 (AB015), C-term; VD VEGF (AB014); HC linker long, LC linker short; also called DVD-Ig DVD475; DVD475H
# B4: DVD481 (bispecific antibody, human IgG1, kappa)
# heavy: EVQLVESGGGLVQPGGSLRLSCAASGFTFTDNWISWVRQAPGKGLEWVGYISPNSGFTYYADSVKGRFTISADTSKNTAYLQMNSLRAEDTAVYYCARDNFGGYFDYWGQGTLVTVSSASTKGPEVQLVESGGGLVQPGGSLRLSCAASGYTFTNYGMNWVRQAPGKGLEWVGWINTYTGEPTYAADFKRRFTFSLDTSKSTAYLQMNSLRAEDTAVYYCAKYPHYYGSSHWYFDVWGQGTLVTVSS[omitted - human IgG1 constant region]
# light: DIQMTQSPSSLSASVGDRVTITCRASQDVSTAVAWYQQKPGKAPKLLIYSASFLYSGVPSRFSGSGSGTDFTLTISSLQPEDFATTYYCQQSYTGTVTFGQGTKVEIKRTVAAPSVFIFPPDIQMTQSPSSLSASVGDRVTITCSASQDISNYLNWYQQKPGKAPKVLIYFTSSLHSGVPSRFSGSGSGTDFTLTISSLQPEDFATYYCQQYSTVPWTFGQGTKVEIKRTVAAPSVFIFPPSDEQLKSGTASVVCLLNNFYPREAKVQWKVDNALQSGNSQESVTEQDSKDSTYSLSSTLTLSKADYEKHKVYACEVTHQGLSSPVTKSFNRGEC
# notes: DVD-Ig; N-term; VD DLL4 (AB015), C-term; VD VEGF (AB014); HC linker short, LC linker long; also called DVD-Ig DVD481; DVD481H
# B5: DVD511 (bispecific antibody, human IgG1, kappa)
# heavy: EVQLQQSGPELEKPGASVKISCKASGYSFTGYNMNWVKQSNGKSLEWIGNIDPYFGGTNYNQKFKGKATLTVDKSSSTAYMQLKSLTSEDSAVYYCARNYDYDGGCFDYWGQGTTLTVSSASTKGPEVQLVESGGGLVQPGGSLRLSCAASGYTFTNYGMNWVRQAPGKGLEWVGWINTYTGEPTYAADFKRRFTFSLDTSKSTAYLQMNSLRAEDTAVYYCAKYPHYYGSSHWYFDVWGQGTLVTVSS[omitted - human IgG1 constant region]
# light: QAVVTQESALTTSPGETVTLTCRSSTGAVTTSNYANWVQEKPDHLFTGLIGGTNNRAPGVPARFSGSLIGDKAALTITGAQTEDEAIYFCALWYSNHWVFGGGTKLTVLGQPKAAPDIQMTQSPSSLSASVGDRVTITCSASQDISNYLNWYQQKPGKAPKVLIYFTSSLHSGVPSRFSGSGSGTDFTLTISSLQPEDFATYYCQQYSTVPWTFGQGTKVEIKRTVAAPSVFIFPPSDEQLKSGTASVVCLLNNFYPREAKVQWKVDNALQSGNSQESVTEQDSKDSTYSLSSTLTLSKADYEKHKVYACEVTHQGLSSPVTKSFNRGEC
# notes: DVD-Ig; N-term; VD DLL4 (AB073), C-term; VD VEGF (AB014); HC linker short, LC linker short; 3'; 4'; also called DVD-Ig DVD511; DVD511H
# B6: DVD517 (bispecific antibody, human IgG1, kappa, lambda)
# heavy: EVQLQQSGPELEKPGASVKISCKASGYSFTGYNMNWVKQSNGKSLEWIGNIDPYFGGTNYNQKFKGKATLTVDKSSSTAYMQLKSLTSEDSAVYYCARNYDYDGGCFDYWGQGTTLTVSSASTKGPSVFPLAPEVQLVESGGGLVQPGGSLRLSCAASGYTFTNYGMNWVRQAPGKGLEWVGWINTYTGEPTYAADFKRRFTFSLDTSKSTAYLQMNSLRAEDTAVYYCAKYPHYYGSSHWYFDVWGQGTLVTVSS[omitted - human IgG1 constant region]
# light: QAVVTQESALTTSPGETVTLTCRSSTGAVTTSNYANWVQEKPDHLFTGLIGGTNNRAPGVPARFSGSLIGDKAALTITGAQTEDEAIYFCALWYSNHWVFGGGTKLTVLGQPKAAPSVTLFPPDIQMTQSPSSLSASVGDRVTITCSASQDISNYLNWYQQKPGKAPKVLIYFTSSLHSGVPSRFSGSGSGTDFTLTISSLQPEDFATYYCQQYSTVPWTFGQGTKVEIKRTVAAPSVFIFPPSDEQLKSGTASVVCLLNNFYPREAKVQWKVDNALQSGNSQESVTEQDSKDSTYSLSSTLTLSKADYEKHKVYACEVTHQGLSSPVTKSFNRGEC
# notes: DVD-Ig; N-term; VD DLL4 (AB073), C-term; VD VEGF (AB014); HC linker long, LC linker long; also called DVD-Ig DVD517; DVD517H
# B7: DVD523 (bispecific antibody, human IgG1, kappa)
# heavy: EVQLQQSGPELEKPGASVKISCKASGYSFTGYNMNWVKQSNGKSLEWIGNIDPYFGGTNYNQKFKGKATLTVDKSSSTAYMQLKSLTSEDSAVYYCARNYDYDGGCFDYWGQGTTLTVSSASTKGPSVFPLAPEVQLVESGGGLVQPGGSLRLSCAASGYTFTNYGMNWVRQAPGKGLEWVGWINTYTGEPTYAADFKRRFTFSLDTSKSTAYLQMNSLRAEDTAVYYCAKYPHYYGSSHWYFDVWGQGTLVTVSS[omitted - human IgG1 constant region]
# light: QAVVTQESALTTSPGETVTLTCRSSTGAVTTSNYANWVQEKPDHLFTGLIGGTNNRAPGVPARFSGSLIGDKAALTITGAQTEDEAIYFCALWYSNHWVFGGGTKLTVLGQPKAAPDIQMTQSPSSLSASVGDRVTITCSASQDISNYLNWYQQKPGKAPKVLIYFTSSLHSGVPSRFSGSGSGTDFTLTISSLQPEDFATYYCQQYSTVPWTFGQGTKVEIKRTVAAPSVFIFPPSDEQLKSGTASVVCLLNNFYPREAKVQWKVDNALQSGNSQESVTEQDSKDSTYSLSSTLTLSKADYEKHKVYACEVTHQGLSSPVTKSFNRGEC
# notes: DVD-Ig; N-term; VD DLL4 (AB073), C-term; VD VEGF (AB014); HC linker long, LC linker short; also called DVD-Ig DVD523; DVD523H
# B8: DVD529 (bispecific antibody, human IgG1, kappa, lambda)
# heavy: EVQLQQSGPELEKPGASVKISCKASGYSFTGYNMNWVKQSNGKSLEWIGNIDPYFGGTNYNQKFKGKATLTVDKSSSTAYMQLKSLTSEDSAVYYCARNYDYDGGCFDYWGQGTTLTVSSASTKGPEVQLVESGGGLVQPGGSLRLSCAASGYTFTNYGMNWVRQAPGKGLEWVGWINTYTGEPTYAADFKRRFTFSLDTSKSTAYLQMNSLRAEDTAVYYCAKYPHYYGSSHWYFDVWGQGTLVTVSS[omitted - human IgG1 constant region]
# light: QAVVTQESALTTSPGETVTLTCRSSTGAVTTSNYANWVQEKPDHLFTGLIGGTNNRAPGVPARFSGSLIGDKAALTITGAQTEDEAIYFCALWYSNHWVFGGGTKLTVLGQPKAAPSVTLFPPDIQMTQSPSSLSASVGDRVTITCSASQDISNYLNWYQQKPGKAPKVLIYFTSSLHSGVPSRFSGSGSGTDFTLTISSLQPEDFATYYCQQYSTVPWTFGQGTKVEIKRTVAAPSVFIFPPSDEQLKSGTASVVCLLNNFYPREAKVQWKVDNALQSGNSQESVTEQDSKDSTYSLSSTLTLSKADYEKHKVYACEVTHQGLSSPVTKSFNRGEC
# notes: DVD-Ig; N-term; VD DLL4 (AB073), C-term; VD VEGF (AB014); HC linker short, LC linker long; also called DVD-Ig DVD529; DVD529H
# B9: DVD487 (bispecific antibody, human IgG1, kappa)
# heavy: EVQLQQSGPELVKPGASVKMSCKASGYTFTSYVINWVKQKPGQGLEWIGLINPYNDGTKYNEKFKVKATLTSDKSSSTAYMELSSLTSEDSAVYYCASYYYGSRYYFDYWGQGTTLTVSSASTKGPEVQLVESGGGLVQPGGSLRLSCAASGYTFTNYGMNWVRQAPGKGLEWVGWINTYTGEPTYAADFKRRFTFSLDTSKSTAYLQMNSLRAEDTAVYYCAKYPHYYGSSHWYFDVWGQGTLVTVSS[omitted - human IgG1 constant region]
# light: DIQMTQSSSYLSVSLGGRVTITCKASDHINNWLAWYQQKPGNAPRLLISGATSLETGVPSRFSGSGSGKDYTLSITSLQTEDVATYYCQQYWSIPLTFGAGTKLELKRTVAAPDIQMTQSPSSLSASVGDRVTITCSASQDISNYLNWYQQKPGKAPKVLIYFTSSLHSGVPSRFSGSGSGTDFTLTISSLQPEDFATYYCQQYSTVPWTFGQGTKVEIKRTVAAPSVFIFPPSDEQLKSGTASVVCLLNNFYPREAKVQWKVDNALQSGNSQESVTEQDSKDSTYSLSSTLTLSKADYEKHKVYACEVTHQGLSSPVTKSFNRGEC
# notes: DVD-Ig; N-term; VD DLL4 (AB072), C-term; VD VEGF (AB014); HC linker short, LC linker short; 4'; 3'; also called DVD-Ig DVD487; DVD487H
# Target: T1, DLL4 (DLL ECD His tag, R&D 1506-D4-050) (UniProt Q9NR61 in part)
# T1 construct: extracellular domain; bought
# Experiment: BIACORE (SPR), DVD-Ig against DLL4
Binder,Kd [nM],koff [s⁻¹],kon [M⁻¹ s⁻¹]
B1,0.216,0.000145,669000
B2,0.515,7.27e-05,141000
B3,0.431,0.000195,452000
B4,1.29,0.000241,187000
B5,1.43,0.00173,1.21e+06
B6,1.48,0.00176,1.19e+06
B7,1.93,0.00209,1.08e+06
B8,1.8,0.00151,840000
B9,0.288,8.19e-05,284000
